This is one part of the list. At the low end of the ranking, values are background and their order means little.

52 sequences from publication PMC6602471 can be followed below.

The assay deals with T1, ELK1 (UniProt P19419).
T1 sequence: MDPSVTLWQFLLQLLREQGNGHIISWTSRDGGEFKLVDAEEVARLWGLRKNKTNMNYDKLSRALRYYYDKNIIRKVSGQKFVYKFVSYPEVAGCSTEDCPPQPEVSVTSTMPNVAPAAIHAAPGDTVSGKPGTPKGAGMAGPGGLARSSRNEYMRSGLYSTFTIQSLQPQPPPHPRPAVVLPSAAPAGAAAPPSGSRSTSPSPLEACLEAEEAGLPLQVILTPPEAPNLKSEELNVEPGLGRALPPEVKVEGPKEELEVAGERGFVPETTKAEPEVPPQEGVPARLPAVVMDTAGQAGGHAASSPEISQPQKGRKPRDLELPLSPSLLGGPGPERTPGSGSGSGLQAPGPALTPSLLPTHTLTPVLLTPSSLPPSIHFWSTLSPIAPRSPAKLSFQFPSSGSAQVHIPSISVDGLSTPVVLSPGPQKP
The assay is described as follows: custom PBM. The following applies: custom protein-binding microarray; buffer, salt, pH and temperature not stated; high values mean tight binding; double strand, one strand shown.
As for “CTGTGACTTGACCCAACTCTGCCACGTGGGTCGTTTGTCTTGATTCGCTTGACGCTGCTG”, the binding signal (log fluorescence intensity) is 9.01. In the case of “TCCGGCTACCAGCGCCACCCACTTCAGGCCTTGTAGGTCTTGATTCGCTTGACGCTGCTG” it was 8.91. Under “CAGCATAGGACTTCTCCCCTGAAGCAATTGATAACCGTCTTGATTCGCTTGACGCTGCTG” stands 8.91. For the sequence “GCTGTTGCGGTGCATACCCCACCGGATGTGACCCCGGTCTTGATTCGCTTGACGCTGCTG”, the binding signal (log fluorescence intensity) was determined as 10.4. Under “GATTAATTTCTGCCCTTAATCGCACGTGCCATAACAGTCTTGATTCGCTTGACGCTGCTG” stands 8.9; under “GTGTATAGGATCCCATCCAACACACGTGTTAAAATAGTCTTGATTCGCTTGACGCTGCTG”, 8.82. In the case of “TCCGGATACCAGCTCCACCCACTTCAGGCCTTGTAGGTCTTGATTCGCTTGACGCTGCTG” it was 9.07. Under “TGTCTGGTAAGGGAATGTAGATCACGTGAATGAAAAGTCTTGATTCGCTTGACGCTGCTG” stands 8.91; under “GATTAATTTCTGCCCTTATACGCACGTGCCATAACAGTCTTGATTCGCTTGACGCTGCTG”, 8.8.

In the case of “TACTGACTTGTATATGCGAATGCACATGAATAGACCGTCTTGATTCGCTTGACGCTGCTG”, the binding signal (log fluorescence intensity) is 8.73. In the case of “TCCGGCTACCAGTTCCACCCACTTCAGGCCTTGTAGGTCTTGATTCGCTTGACGCTGCTG” it was 9.18; in that of “CGGAAGTGTCGTAAACGGCGGATATCCGGTTCTTCTGTCTTGATTCGCTTGACGCTGCTG”, 12.6; in that of “TCCGGCTACCAGCTCCACCCACTTCGGGCCTTGTAGGTCTTGATTCGCTTGACGCTGCTG”, 8.92.

For “CTGGGACTTGACCCAACTCTGCCACGCGGGTCGTTTGTCTTGATTCGCTTGACGCTGCTG”, the binding signal (log fluorescence intensity) amounted to 8.85.

Regarding “CAGCATAGTACTTCTTCCCTGAAGCAATTGATAACCGTCTTGATTCGCTTGACGCTGCTG”, the binding signal (log fluorescence intensity) is 8.98. In the case of “CAGCATAGGCCTTCTTCCCTGAAGCAATTGATAACCGTCTTGATTCGCTTGACGCTGCTG” it was 8.86; in that of “GATTAATTTCTGCCCTTATTCGGACGTGCCATAACAGTCTTGATTCGCTTGACGCTGCTG”, 9.13.

For “GGAAAAAGACCCAGGGTAACACCGGAAGTGGGCTTAGTCTTGATTCGCTTGACGCTGCTG”, the binding signal (log fluorescence intensity) worked out at 11.

Regarding “TCCGGCTACCAGCTCCACCCACTTCACGCCTTGTAGGTCTTGATTCGCTTGACGCTGCTG”, the binding signal (log fluorescence intensity) stood at 8.85.

On to “CACAATTTTTACAGTAATGTAGCACGCCTAACTCCTGTCTTGATTCGCTTGACGCTGCTG”, for which the binding signal (log fluorescence intensity) turned out to be 8.87. In the case of “CGCAATTTTTACAGTAATGTAGCACGCGTAACTCCTGTCTTGATTCGCTTGACGCTGCTG” it was 8.83. Under “TGTCGGGTAAGGGAATGTAGATCACGTGAATAAAAAGTCTTGATTCGCTTGACGCTGCTG” stands 8.89. Under “GGAAAAAGGCCCAGGGTAACACCAGAAGTGGGCTTAGTCTTGATTCGCTTGACGCTGCTG” stands 8.76; under “GTGTATAGGATCCCATCCAACACACGTGTTAAAAAGGTCTTGATTCGCTTGACGCTGCTG”, 8.69. Consider “CACAATTTTTACAGTAATGTAGCGCGCGTAACTCCTGTCTTGATTCGCTTGACGCTGCTG”, for which the binding signal (log fluorescence intensity) was found to be 8.93. As for “GATTAATCTCTGCCCTTATTCGCACGTGCCATAACAGTCTTGATTCGCTTGACGCTGCTG”, the binding signal (log fluorescence intensity) worked out at 8.77. Under “TAAAGGGAAGACGGTTGTGGTACTTCCGGGTATTAAGTCTTGATTCGCTTGACGCTGCTG” stands 12; under “TCCGGCTACCAGCTCCACCCACTTCAGGCCTTGTATGTCTTGATTCGCTTGACGCTGCTG”, 8.82; under “CTGGTACTTGACCCAACTCTGCCACGTGGGTCGTTTGTCTTGATTCGCTTGACGCTGCTG”, 8.96.

As for “CGGAAGTGTCGTAAACTTCGGATATCCGGTTCTTCTGTCTTGATTCGCTTGACGCTGCTG”, the binding signal (log fluorescence intensity) amounted to 12.3. In the case of “CACAATTTATACAGTAATGTAGCACGCGTAACTCCTGTCTTGATTCGCTTGACGCTGCTG” it was 8.92; in that of “GTGTATAGGATCCCATCCAACAGACGTGTTAAAATGGTCTTGATTCGCTTGACGCTGCTG”, 8.71; in that of “CGGAAGTGTCGTAAACGTCGGATAACCGGTTCTTCTGTCTTGATTCGCTTGACGCTGCTG”, 8.9. As for “CTGGGACTTGACCCAACTCTGCCACGTGGATCGTTTGTCTTGATTCGCTTGACGCTGCTG”, the binding signal (log fluorescence intensity) came out at 8.8. Under “TCCGGCTACCGGCTCCACCCACTTCAGGCCTTGTAGGTCTTGATTCGCTTGACGCTGCTG” stands 11.6; under “GGAAAAAGGCGCAGGGTAACACCGGAAGTGGGCTTAGTCTTGATTCGCTTGACGCTGCTG”, 11; under “GTGTATAGGATCCCATCCAACACACGTGGTAAAATGGTCTTGATTCGCTTGACGCTGCTG”, 8.97. Turning to “CTGGGACTTGACCCAACTCTGCCACCTGGGTCGTTTGTCTTGATTCGCTTGACGCTGCTG”, the binding signal (log fluorescence intensity) was determined as 8.8. Under “GGAAAAAGGCCCAGGGTAACACCGGAAGTGGGCTTGGTCTTGATTCGCTTGACGCTGCTG” stands 11; under “CTGGGACTTGACCCAACTCTGCCACGTGGGTCGTTAGTCTTGATTCGCTTGACGCTGCTG”, 8.99; under “CAGCATAGGACTTCTTCCCTGAAGCATTTGATAACCGTCTTGATTCGCTTGACGCTGCTG”, 8.94. As to “GATTAATTTCAGCCCTTATTCGCACGTGCCATAACAGTCTTGATTCGCTTGACGCTGCTG”, the binding signal (log fluorescence intensity) was determined as 8.95. In the case of “CGGAAGTGTCGTAAACGTCGGATATCCGGTTCTTGTGTCTTGATTCGCTTGACGCTGCTG” it was 12.6; in that of “TGTCGGGTAAGGGAATGTAGATCACGTGAATCAAAAGTCTTGATTCGCTTGACGCTGCTG”, 8.84; in that of “TACTGACTTATCTATGCGAATGCACATGAATAGACCGTCTTGATTCGCTTGACGCTGCTG”, 8.81. Under “CACGATTTTTACAGTAATGTAGCACGCGTAACTCCTGTCTTGATTCGCTTGACGCTGCTG” stands 8.88; under “CACAATTTTTACAGAAATGTAGCACGCGTAACTCCTGTCTTGATTCGCTTGACGCTGCTG”, 8.81. Under “CGGAAGTGTCGTAAACGTCGGATATCCGGTTGTTCTGTCTTGATTCGCTTGACGCTGCTG” stands 12.5. Consider “TAAAGGGAAGACGGTTGGGGTAGTTCCGGGTATTAAGTCTTGATTCGCTTGACGCTGCTG”, for which the binding signal (log fluorescence intensity) was 11.4. For the sequence “TCCGGCTACCAGCTCCACTCACTTCAGGCCTTGTAGGTCTTGATTCGCTTGACGCTGCTG”, the binding signal (log fluorescence intensity) worked out at 8.9.

With “TAAATGGAAGACGGTTGTGGTAGTTCCGGGTATTAAGTCTTGATTCGCTTGACGCTGCTG”, the binding signal (log fluorescence intensity) turned out to be 11.2. Under “GGAAAAAGGCCCAGGGTAACACCGCAAGTGGGCTTAGTCTTGATTCGCTTGACGCTGCTG” stands 8.91.
